According to patent US20210238308A1 (Chugai, published 2021):

T1: PRYSPRY domain of human TRIM21 with N-terminal 6xHis tag (human)
T1 construct: Expressed in E. coli; also called hTRIM21; human TRIM21.PRYSPRY
T1 chain: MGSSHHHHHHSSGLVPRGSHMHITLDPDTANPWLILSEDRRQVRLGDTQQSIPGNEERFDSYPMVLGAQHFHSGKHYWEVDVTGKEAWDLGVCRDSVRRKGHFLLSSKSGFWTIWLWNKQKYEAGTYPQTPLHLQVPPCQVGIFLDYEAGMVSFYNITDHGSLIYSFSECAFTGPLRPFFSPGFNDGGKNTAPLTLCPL

T2: PRYSPRY domain of mouse TRIM21 with N-terminal 6xHis tag (mouse)
T2 construct: Expressed in E. coli; also called mTRIM21; mouse TRIM21.PRYSPRY
T2 chain: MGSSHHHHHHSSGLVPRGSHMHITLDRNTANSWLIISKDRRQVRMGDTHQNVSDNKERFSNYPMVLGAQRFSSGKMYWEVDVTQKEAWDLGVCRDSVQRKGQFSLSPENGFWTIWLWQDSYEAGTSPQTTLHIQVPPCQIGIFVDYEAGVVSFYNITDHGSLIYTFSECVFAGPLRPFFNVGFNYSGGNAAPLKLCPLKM

B1: MRAH-G1d/MRAL-KT0 M428T (antibody, human IgG1, kappa)
heavy: QVQLQESGPGLVRPSQTLSLTCTVSGYSITSDHAWSWVRQPPGRGLEWIGYISYSGITTYNPSLKSRVTMLRDTSKNQFSLRLSSVTAADTAVYYCARSLARTTAMDYWGQGSLVTVSS[human IgG1 constant region with M428T (EU numbers) omitted here]
light: DIQMTQSPSSLSASVGDRVTITCRASQDISSYLNWYQQKPGKAPKLLIYYTSRLHSGVPSRFSGSGSGTDFTFTISSLQPEDIATYYCQQGNTLPYTFGQGTKVEIKRTVAAPSVFIFPPSDEQLKSGTASVVCLLNNFYPREAKVQWKVDNALQSGNSQESVTEQDSKDSTYSLSSTLTLSKADYEKHKVYACEVTHQGLSSPVTKSFNRGEC
notes: copies: 2 + 2
B2: MRAH-G1d/MRAL-KT0 N315E (antibody, human IgG1, kappa)
heavy: QVQLQESGPGLVRPSQTLSLTCTVSGYSITSDHAWSWVRQPPGRGLEWIGYISYSGITTYNPSLKSRVTMLRDTSKNQFSLRLSSVTAADTAVYYCARSLARTTAMDYWGQGSLVTVSS[human IgG1 constant region with N315E (EU numbers) omitted here]
light: B1 light
notes: copies: 2 + 2
B3: MRAH-G1d/MRAL-KT0 N315P (antibody, human IgG1, kappa)
heavy: QVQLQESGPGLVRPSQTLSLTCTVSGYSITSDHAWSWVRQPPGRGLEWIGYISYSGITTYNPSLKSRVTMLRDTSKNQFSLRLSSVTAADTAVYYCARSLARTTAMDYWGQGSLVTVSS[human IgG1 constant region with N315P (EU numbers) omitted here]
light: B1 light
notes: copies: 2 + 2
B4: MRAH-G1d/MRAL-KT0 N315M (antibody, human IgG1, kappa)
heavy: QVQLQESGPGLVRPSQTLSLTCTVSGYSITSDHAWSWVRQPPGRGLEWIGYISYSGITTYNPSLKSRVTMLRDTSKNQFSLRLSSVTAADTAVYYCARSLARTTAMDYWGQGSLVTVSS[human IgG1 constant region with N315M (EU numbers) omitted here]
light: B1 light
notes: copies: 2 + 2
B5: MRAH-G1d/MRAL-KT0 N315F (antibody, human IgG1, kappa)
heavy: QVQLQESGPGLVRPSQTLSLTCTVSGYSITSDHAWSWVRQPPGRGLEWIGYISYSGITTYNPSLKSRVTMLRDTSKNQFSLRLSSVTAADTAVYYCARSLARTTAMDYWGQGSLVTVSS[human IgG1 constant region with N315F (EU numbers) omitted here]
light: B1 light
notes: copies: 2 + 2
B6: MRAH-G1d/MRAL-KT0 N434D (antibody, human IgG1, kappa)
heavy: QVQLQESGPGLVRPSQTLSLTCTVSGYSITSDHAWSWVRQPPGRGLEWIGYISYSGITTYNPSLKSRVTMLRDTSKNQFSLRLSSVTAADTAVYYCARSLARTTAMDYWGQGSLVTVSS[human IgG1 constant region with N434D (EU numbers) omitted here]
light: B1 light
notes: copies: 2 + 2
B7: MRAH-G1d/MRAL-KT0 N315V (antibody, human IgG1, kappa)
heavy: QVQLQESGPGLVRPSQTLSLTCTVSGYSITSDHAWSWVRQPPGRGLEWIGYISYSGITTYNPSLKSRVTMLRDTSKNQFSLRLSSVTAADTAVYYCARSLARTTAMDYWGQGSLVTVSS[human IgG1 constant region with N315V (EU numbers) omitted here]
light: B1 light
notes: copies: 2 + 2
B8: MRAH-G1d/MRAL-KT0 M428W (antibody, human IgG1, kappa)
heavy: QVQLQESGPGLVRPSQTLSLTCTVSGYSITSDHAWSWVRQPPGRGLEWIGYISYSGITTYNPSLKSRVTMLRDTSKNQFSLRLSSVTAADTAVYYCARSLARTTAMDYWGQGSLVTVSS[human IgG1 constant region with M428W (EU numbers) omitted here]
light: B1 light
notes: copies: 2 + 2
B9: MRAH-G1d/MRAL-KT0 N315R (antibody, human IgG1, kappa)
heavy: QVQLQESGPGLVRPSQTLSLTCTVSGYSITSDHAWSWVRQPPGRGLEWIGYISYSGITTYNPSLKSRVTMLRDTSKNQFSLRLSSVTAADTAVYYCARSLARTTAMDYWGQGSLVTVSS[human IgG1 constant region with N315R (EU numbers) omitted here]
light: B1 light
notes: copies: 2 + 2
B10: MRAH-G1d/MRAL-KT0 N315A (antibody, human IgG1, kappa)
heavy: QVQLQESGPGLVRPSQTLSLTCTVSGYSITSDHAWSWVRQPPGRGLEWIGYISYSGITTYNPSLKSRVTMLRDTSKNQFSLRLSSVTAADTAVYYCARSLARTTAMDYWGQGSLVTVSS[human IgG1 constant region with N315A (EU numbers) omitted here]
light: B1 light
notes: copies: 2 + 2
B11: MRAH-G1d/MRAL-KT0 N315G (antibody, human IgG1, kappa)
heavy: QVQLQESGPGLVRPSQTLSLTCTVSGYSITSDHAWSWVRQPPGRGLEWIGYISYSGITTYNPSLKSRVTMLRDTSKNQFSLRLSSVTAADTAVYYCARSLARTTAMDYWGQGSLVTVSS[human IgG1 constant region with N315G (EU numbers) omitted here]
light: B1 light
notes: copies: 2 + 2
B12: MRAH-G1d/MRAL-KT0 N315Y (antibody, human IgG1, kappa)
heavy: QVQLQESGPGLVRPSQTLSLTCTVSGYSITSDHAWSWVRQPPGRGLEWIGYISYSGITTYNPSLKSRVTMLRDTSKNQFSLRLSSVTAADTAVYYCARSLARTTAMDYWGQGSLVTVSS[human IgG1 constant region with N315Y (EU numbers) omitted here]
light: B1 light
notes: copies: 2 + 2
B13: MRAH-G1d/MRAL-KT0 N434G (antibody, human IgG1, kappa)
heavy: QVQLQESGPGLVRPSQTLSLTCTVSGYSITSDHAWSWVRQPPGRGLEWIGYISYSGITTYNPSLKSRVTMLRDTSKNQFSLRLSSVTAADTAVYYCARSLARTTAMDYWGQGSLVTVSS[human IgG1 constant region with N434G (EU numbers) omitted here]
light: B1 light
notes: copies: 2 + 2
B14: MRAH-G1d/MRAL-KT0 M428V (antibody, human IgG1, kappa)
heavy: QVQLQESGPGLVRPSQTLSLTCTVSGYSITSDHAWSWVRQPPGRGLEWIGYISYSGITTYNPSLKSRVTMLRDTSKNQFSLRLSSVTAADTAVYYCARSLARTTAMDYWGQGSLVTVSS[human IgG1 constant region with M428V (EU numbers) omitted here]
light: B1 light
notes: copies: 2 + 2
B15: MRAH-G1d/MRAL-KT0 N315W (antibody, human IgG1, kappa)
heavy: QVQLQESGPGLVRPSQTLSLTCTVSGYSITSDHAWSWVRQPPGRGLEWIGYISYSGITTYNPSLKSRVTMLRDTSKNQFSLRLSSVTAADTAVYYCARSLARTTAMDYWGQGSLVTVSS[human IgG1 constant region with N315W (EU numbers) omitted here]
light: B1 light
notes: copies: 2 + 2
B16: MRAH-G1d/MRAL-KT0 N434E (antibody, human IgG1, kappa)
heavy: QVQLQESGPGLVRPSQTLSLTCTVSGYSITSDHAWSWVRQPPGRGLEWIGYISYSGITTYNPSLKSRVTMLRDTSKNQFSLRLSSVTAADTAVYYCARSLARTTAMDYWGQGSLVTVSS[human IgG1 constant region with N434E (EU numbers) omitted here]
light: B1 light
notes: copies: 2 + 2
B17: MRAH-G1d/MRAL-KT0 N315I (antibody, human IgG1, kappa)
heavy: QVQLQESGPGLVRPSQTLSLTCTVSGYSITSDHAWSWVRQPPGRGLEWIGYISYSGITTYNPSLKSRVTMLRDTSKNQFSLRLSSVTAADTAVYYCARSLARTTAMDYWGQGSLVTVSS[human IgG1 constant region with N315I (EU numbers) omitted here]
light: B1 light
notes: copies: 2 + 2
B18: MRAH-G1d/MRAL-KT0 N315H (antibody, human IgG1, kappa)
heavy: QVQLQESGPGLVRPSQTLSLTCTVSGYSITSDHAWSWVRQPPGRGLEWIGYISYSGITTYNPSLKSRVTMLRDTSKNQFSLRLSSVTAADTAVYYCARSLARTTAMDYWGQGSLVTVSS[human IgG1 constant region with N315H (EU numbers) omitted here]
light: B1 light
notes: copies: 2 + 2
B19: MRAH-G1d/MRAL-KT0 N315L (antibody, human IgG1, kappa)
heavy: QVQLQESGPGLVRPSQTLSLTCTVSGYSITSDHAWSWVRQPPGRGLEWIGYISYSGITTYNPSLKSRVTMLRDTSKNQFSLRLSSVTAADTAVYYCARSLARTTAMDYWGQGSLVTVSS[human IgG1 constant region with N315L (EU numbers) omitted here]
light: B1 light
notes: copies: 2 + 2
B20: MRAH-G1d/MRAL-KT0 N315T (antibody, human IgG1, kappa)
heavy: QVQLQESGPGLVRPSQTLSLTCTVSGYSITSDHAWSWVRQPPGRGLEWIGYISYSGITTYNPSLKSRVTMLRDTSKNQFSLRLSSVTAADTAVYYCARSLARTTAMDYWGQGSLVTVSS[human IgG1 constant region with N315T (EU numbers) omitted here]
light: B1 light
notes: copies: 2 + 2
B21: MRAH-G1d/MRAL-KT0 N315Q (antibody, human IgG1, kappa)
heavy: QVQLQESGPGLVRPSQTLSLTCTVSGYSITSDHAWSWVRQPPGRGLEWIGYISYSGITTYNPSLKSRVTMLRDTSKNQFSLRLSSVTAADTAVYYCARSLARTTAMDYWGQGSLVTVSS[human IgG1 constant region with N315Q (EU numbers) omitted here]
light: B1 light
notes: copies: 2 + 2
B22: MRAH-G1d/MRAL-KT0 M428Y (antibody, human IgG1, kappa)
heavy: QVQLQESGPGLVRPSQTLSLTCTVSGYSITSDHAWSWVRQPPGRGLEWIGYISYSGITTYNPSLKSRVTMLRDTSKNQFSLRLSSVTAADTAVYYCARSLARTTAMDYWGQGSLVTVSS[human IgG1 constant region with M428Y (EU numbers) omitted here]
light: B1 light
notes: copies: 2 + 2
B23: MRAH-G1d/MRAL-KT0 N315K (antibody, human IgG1, kappa)
heavy: QVQLQESGPGLVRPSQTLSLTCTVSGYSITSDHAWSWVRQPPGRGLEWIGYISYSGITTYNPSLKSRVTMLRDTSKNQFSLRLSSVTAADTAVYYCARSLARTTAMDYWGQGSLVTVSS[human IgG1 constant region with N315K (EU numbers) omitted here]
light: B1 light
notes: copies: 2 + 2
B24: MRAH-G1d/MRAL-KT0 N315S (antibody, human IgG1, kappa)
heavy: QVQLQESGPGLVRPSQTLSLTCTVSGYSITSDHAWSWVRQPPGRGLEWIGYISYSGITTYNPSLKSRVTMLRDTSKNQFSLRLSSVTAADTAVYYCARSLARTTAMDYWGQGSLVTVSS[human IgG1 constant region with N315S (EU numbers) omitted here]
light: B1 light
notes: copies: 2 + 2

Legend:
Test in all cases: SPR, Protein L capture
human FcRn = target: T3, human FcRn (human, UniProt P55899 part only; P61769 part only, limits assumed)
T3 construct: also called hFcRn

[1] = target: T1, PRYSPRY domain of human TRIM21 with …
[2] = target: T2, PRYSPRY domain of mouse TRIM21 with …

Chain of human FcRn (P55899 24-290 limits assumed, form in doubt, chain 1 of 2): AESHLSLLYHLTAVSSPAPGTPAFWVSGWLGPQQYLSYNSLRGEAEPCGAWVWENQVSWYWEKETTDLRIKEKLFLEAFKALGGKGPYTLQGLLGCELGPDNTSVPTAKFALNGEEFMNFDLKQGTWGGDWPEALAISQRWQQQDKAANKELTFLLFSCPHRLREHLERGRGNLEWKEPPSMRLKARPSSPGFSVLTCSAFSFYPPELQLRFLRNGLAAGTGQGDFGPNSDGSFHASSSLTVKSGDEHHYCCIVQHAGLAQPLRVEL
Chain of human FcRn (P61769 21-119 limits assumed, form in doubt, chain 2 of 2, further chain): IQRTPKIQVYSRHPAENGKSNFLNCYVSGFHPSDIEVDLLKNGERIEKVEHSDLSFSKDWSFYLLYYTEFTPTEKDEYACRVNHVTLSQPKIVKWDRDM

| Binder | hFcRn binding level ratio (variant/control antibody) (human FcRn) | hTRIM21 binding level ratio (variant/control antibody) [1] | mTRIM21 binding level ratio (variant/control antibody) [2] |
| --- | --- | --- | --- |
| B1 | 0.41 | 0.951 | 3.41 |
| B2 | 0.4 | 0.61 | 1.19 |
| B3 | 0.34 | 1.21 | 2.93 |
| B4 | 0.88 | 1.3 | 2.39 |
| B5 | 0.03 | 0.991 | 2.46 |
| B6 | 0.04 | 0.037 | -0.151 |
| B7 | 0.92 | 1.19 | 2.51 |
| B8 | 0.66 | 1.04 | 0.758 |
| B9 | 0.13 | 1.18 | 2.97 |
| B10 | 0.05 | 0.943 | 2.29 |
| B11 | 0.16 | 1.09 | 2.66 |
| B12 | 0.06 | 0.941 | 2.45 |
| B13 | 1.37 | 0.108 | 0.305 |
| B14 | 0.57 | 1.05 | 2.38 |
| B15 | 0.95 | 0.982 | 2.38 |
| B16 | 0.26 | -0.005 | -0.117 |
| B17 | 0.27 | 1.25 | 2.5 |
| B18 | 0.41 | 0.88 | 2.39 |
| B19 | 0.94 | 1.13 | 2 |
| B20 | 0.78 | 1.07 | 2.44 |
| B21 | 0.87 | 1.21 | 2.31 |
| B22 | 1.27 | 0.699 | 1.25 |
| B23 | 0.8 | 0.994 | 2.78 |
| B24 | 0.13 | 1.18 | 2.7 |
